Measured values: PubChem BioAssay AID624417 (National Center for Advancing Translational Sciences (NCATS), 2012)
The whole screen tested about 410,000 compounds, of which about 6,400 (1.6%) were called active. Inconclusive means that the source gave no clear call. Such entries were picked first, then a sample of the others. The call rests on the fitted dose curve; in most records, active means well fitted inhibition curve with a large enough effect; inconclusive means small, poorly fitted or top-dose-only effect; inactive means no such curve, though single readings can be large or run the other way. Where the call is inconclusive, the potency comes from a doubtful curve fit.

What follows are molecules tested against Glucagon-like peptide 1 receptor (Homo sapiens) (UniProt P43220) (assay: qHTS of GLP-1 Receptor Inverse Agonists (Inhibition Mode)). Conditions: HEK293 GLP-1R CRE-luciferase, luminescence, 24 h, GLP-1R form is constitutively active; activity change, negative = inhibition: at 38.3 µM (top of the series) unless noted.
Sequence of UniProt P43220 (P43220 whole entry, looked up): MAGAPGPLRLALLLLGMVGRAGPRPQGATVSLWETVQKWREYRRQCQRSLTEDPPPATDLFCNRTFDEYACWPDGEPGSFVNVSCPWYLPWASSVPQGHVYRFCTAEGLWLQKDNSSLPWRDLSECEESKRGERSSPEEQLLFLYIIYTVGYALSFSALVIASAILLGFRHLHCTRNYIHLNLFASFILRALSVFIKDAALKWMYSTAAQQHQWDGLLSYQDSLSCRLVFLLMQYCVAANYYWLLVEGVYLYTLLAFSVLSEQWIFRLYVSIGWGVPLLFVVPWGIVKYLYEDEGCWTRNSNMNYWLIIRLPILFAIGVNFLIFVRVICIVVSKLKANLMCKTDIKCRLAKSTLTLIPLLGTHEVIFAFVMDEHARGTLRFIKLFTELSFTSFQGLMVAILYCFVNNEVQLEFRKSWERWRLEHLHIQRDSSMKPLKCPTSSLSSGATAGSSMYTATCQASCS
Text: The overall goal of this project was to develop a novel assay for discovering small molecule ligands for class B1 G protein-coupled receptors (GPCRs). Very few agonists (or inverse agonists in inhibition mode) with generally weak activity for this entire group of physiologically important receptors are known to date. To establish proof-of-principle that this critical bottleneck can be overcome with a suitable screening approach, our studies focused on the class B1 receptor for glucagon-like peptide-1 (GLP-1R), a potential therapeutic target for diabetes and neurodegenerative disease. The assay was developed using a cell-based functional readout. Toward this goal, stably transfected HEK293 cell clones were established that co-express (i) a cAMP-responsive luciferase reporter gene, and (ii) constitutively active GLP-1R that upon ligand interaction inhibit (inverse agonists) the luciferase activity. In addition, two control cell lines were developed: (i) one that express only the cAMP-responsive reporter gene to enable initial exclusion of GLP-1R independent effects of candidate probes; and (ii) one with the reported gene cloned with another constitutively active orphan receptor GPR119 to enable exclusion of GLP-1R independent inhibitor effects of candidate inverse agonists. To that end, this assay was optimized for 1536-well format and screened against the MLSMR. […] NIH Molecular Libraries Probe Production Network [MLPCN] NIH Chemical Genomics Center [NCGC] Grant: NS064851 PI Name: Martin Beinborn, Tufts Medical Center
Six ul of cell suspension (200 cells/uL in DMEM + 10% Nu serum + 1% pen-strep) is dispensed in a white solid 1536-well plate. The plates are incubated for 12 hours at 37 deg C at 5% CO2 followed by addition of 23 nL compounds. After 24 hr incubation at 37 deg C and 5% CO2, 3 uL of luciferase assay detection reagent is added. A luminescence read is obtained on the PerkinElmer Viewlux after 12 min incubation at room temperature.
Further: nearly all actives have a fitted effect of over 55% in size.
On the % scale 0 is the no-effect control and ±100 the full control effect; potency means the concentration at half of the fitted maximal effect; tags describe the fitted curve by direction and shape.

Activity change, negative = inhibition, inactive:
COc1ccc(Cl)cc1NC(=O)CCCN1C(=O)C(c2ccccc2)Oc2cccnc21 (configuration not stated) -28%, CCn1c(=N)c(C(=O)NC2CCCCC2)cc2c(=O)n3cc(C)ccc3nc21 16.1%, COc1cc(OC)c(OC)cc1CNc1sc2c(c1C(=O)Nc1ccccc1OC)CCC2 16.5%, O=C(Nc1ccc2nc(SCC(=O)N3CCc4ccccc43)sc2c1)c1cccc(Cl)c1 -5.57%, Cc1nncn1-c1ccc(C(=O)Nc2cc(F)ccc2F)cc1 6.64%, CC[C@@H](NC(=O)[C@@H](Cc1ccccc1)NC(=O)CC[C@H]1O[C@@H](n2ccc(=O)[nH]c2=O)[C@H](O)[C@@H]1O)c1ccccc1 26.9%, Cc1ccc(S(=O)(=O)N(C)C[C@@H]2OCc3cn(nn3)CCCC(=O)N([C@H](C)CO)C[C@H]2C)cc1 7%, CC(C)(C)C(=O)Nc1cccc(C(=O)OCc2cc(=O)n3nc(C4CCCCC4)sc3n2)c1 -0.0417%, N#C/C(=C\c1ccc(-c2cc(Cl)ccc2Cl)o1)C(=O)Nc1ccccc1C(=O)O 8.03%, COc1ccc(-c2nsc3c(N4CCCCC4)ncnc23)cc1 -71.6%, CCOC(=O)c1c(NC(=O)COc2ccc(F)cc2)sc2c1CCC(C)C2 (configuration not stated) 2.21%, O=C(NNC(=S)Nc1ccccc1)C1CC1 -0.173%, COc1cc2c(cc1OC)C(c1ccc(Cl)cc1)=NCC2 29.6%

Potency, active:
S=C(NCc1cccs1)Nc1cc(Cl)cc(Cl)c1 8.91 µM, Cc1sc2ncnc(N3CCC(C(=O)N(C)CC(=O)Nc4ccc(Cl)c(C(F)(F)F)c4)CC3)c2c1C 2.51 µM

Potency, inconclusive:
CC(C)Nc1nc(NC(C)C)nc(OCCOC(=O)c2ccccc2)n1 11.2 µM [inhibitor, single point], O=C(Nc1ccc(F)cc1)C(c1ccncc1)N1CCN(c2cccc(C(F)(F)F)n2)CC1 (configuration not stated) 28.2 µM [inhibitor, single point], CC(C)OC(=O)/C(C#N)=C/c1cn(C)c2ccccc12 12.6 µM [inhibitor, partial curve, poor fit], COc1ccc(-c2sc3ccccc3c2C#CCCO)cc1 10 µM [inhibitor, partial curve, poor fit], O=C(NC(=S)Nc1ccc(CN2CCOCC2)cc1)c1ccc(-c2cccc(Cl)c2)o1 12.6 µM [inhibitor, partial curve, poor fit], CN(CCOc1ccc(Cl)cc1)CC(=O)Nc1ccc(OC(F)(F)F)cc1 12.6 µM [inhibitor, partial curve, poor fit], Cc1ccc(NC(=O)C2CCC(N3C(=O)C4CCCCC4C3=O)CC2)cc1 (configuration not stated) 5.01 µM [inhibitor, full curve, poor fit], CC1(C(=O)NS(=O)(=O)c2cccc(F)c2)CCN1C(=O)c1ccccc1CCc1ccccc1 (configuration not stated) 2.24 µM [inhibitor, partial curve, poor fit], COc1ccccc1N(CC(=O)N/N=C(\C)c1ccccc1O)S(=O)(=O)c1ccc(C)cc1 3.98 µM [inhibitor, full curve], CCOc1cc(CNCc2cccs2)cc(Br)c1OC 7.08 µM [inhibitor, partial curve, poor fit], C=C1C(=O)C23C(O)C1CCC2C12CCCC(C)(COC(C)=O)C1C(O)C3(O)OC2 (configuration not stated) 1.12 µM [inhibitor, full curve, poor fit], CCOC(=O)Cn1c(-c2cccnc2)nc(-c2ccccc2)c1-c1ccccc1 10 µM [inhibitor, partial curve, poor fit], Cc1ccc(/C=N/Nc2ccc(C(=O)O)cc2)s1 4.47 µM [inhibitor, full curve, poor fit], CN(C)S(=O)(=O)c1cccc(NC(=O)c2cc(-c3cccs3)nn2-c2ccccc2)c1 11.2 µM [inhibitor, partial curve, poor fit], CC(=O)n1cc([C@H]2C=C(C(=O)NCc3ccccc3)O[C@@H](OCc3ccc(CO)cc3)C2)c2ccccc21 11.2 µM [inhibitor, partial curve], N#C/C(=C(/O)COC(=O)CCC1CCCCC1)c1nc2ccccc2[nH]1 3.55 µM [inhibitor, full curve], Cc1cc(C)c(Cn2c(C(O)c3ccccc3)nc3ccccc32)c(C)c1 (configuration not stated) 3.55 µM [inhibitor, partial curve, poor fit], CN(C)c1nc(NCc2ccccc2)nc(SCC(=O)Nc2ccccc2)n1 28.2 µM [inhibitor, single point], CCCCC1CCC(C(=O)N(C)CC(=O)Nc2cccc(OC)c2)CC1 (configuration not stated) 12.6 µM [inhibitor, partial curve, poor fit], CC(=O)N/N=C/c1ccccc1OCCOc1cccc(C)c1 10 µM [inhibitor, single point], Cc1nn(-c2ccccc2)c2nc3c(cc12)C(=O)CCC3 3.16 µM [inhibitor, partial curve, poor fit], CCOc1ccc(-c2c(C(=O)N/N=C/c3c[nH]c4ccccc34)nnn2-c2nonc2N)cc1 1.58 µM [inhibitor, full curve, poor fit], COc1ccccc1-c1cc(C(=O)NCc2ccccc2)no1 31.6 µM [inhibitor, single point], N#Cc1ccc(CSc2nnc(-c3ccccc3)n2Cc2ccco2)cc1 12.6 µM [inhibitor, single point], O=C(CSc1nc2ccccc2n1Cc1ccccc1Cl)NCc1ccccc1 10 µM [inhibitor, partial curve, poor fit], CCOc1ccc(N2CC(C(=O)Nc3cccc(S(=O)(=O)N4CCCC4)c3)CC2=O)cc1 (configuration not stated) 8.91 µM [inhibitor, partial curve, poor fit], COc1ccccc1CC(=O)N1CCN(c2cccc(C(F)(F)F)c2)CC1 11.2 µM [inhibitor, partial curve, poor fit], CCCCCN(C(=O)CCC(=O)OCC(=O)Nc1ccc(C)cc1F)c1c(N)n(CCCC)c(=O)[nH]c1=O 28.2 µM [inhibitor, single point], CC(C)(C)C(=O)Nc1cccc(-c2nc3ccccc3[nH]2)c1 31.6 µM [inhibitor, partial curve, poor fit], C/C(=N\NC(=O)COc1ccccc1-c1ccccc1)c1ccc(O)cc1O 15.8 µM [inhibitor, single point], COc1ccc(Nc2ncnc3sc(-c4ccccc4)cc23)cc1OC 2 µM [inhibitor, full curve, poor fit], CC1CCN(Cc2c(C#N)c3ccccc3n2C)CC1 22.4 µM [inhibitor, single point], O=C(NCCCN1CCN(c2ccccc2F)CC1)c1nnc(Cc2ccc(Cl)cc2Cl)o1 11.2 µM [inhibitor, single point], CCOC(=O)C(=Cc1ccc(-n2ccnc2)cc1)C(=O)OCC 28.2 µM [inhibitor, single point], Cc1cc(S(=O)(=O)NC[C@H]2O[C@@H](n3cnc4c(N)ncnc43)[C@H](O)[C@@H]2O)c(C)s1 28.2 µM [inhibitor, single point], COc1ccc(CC(N)c2csc(NC(=O)NCCc3ccccc3)n2)cc1 (configuration not stated) 28.2 µM [inhibitor, single point], Cn1c(C(=O)NN)cc2cc(OCc3ccccc3)ccc21 7.94 µM [inhibitor, partial curve, poor fit], O=[N+]([O-])c1ccc(Sc2nnnn2-c2ccccc2)nc1 11.2 µM [inhibitor, partial curve, poor fit], Cc1ccc(NS(=O)(=O)c2ccccc2Cl)c2c1CC(C)(C)O2 11.2 µM [inhibitor, single point], COc1ccc([C@@H]2[C@@H]3C(=O)N(C(C)(C)C)C(=O)[C@@H]3[C@]3(C)C(=O)N(c4cccc(Cl)c4)C(=O)N23)cc1 28.2 µM [inhibitor, single point], COc1ccccc1-c1ncn(Cc2cccc(-c3ccccc3)c2)c1CC(C)C 28.2 µM [inhibitor, single point], Cc1nnc(-c2cccc(Br)c2)c2cn(-c3ccccc3Cl)nc12 28.2 µM [inhibitor, single point], Cc1cc(C)cc(NC(=O)N2CCN(C/C=C/c3ccccc3)CC2)c1 7.08 µM [inhibitor, partial curve, poor fit], COc1ccccc1C(CC(=O)Nc1nccs1)c1ccco1 (configuration not stated) 31.6 µM [inhibitor, single point], COC(=O)c1sc(C(C)(C)C)cc1CS(=O)(=O)c1ccc(Cl)cc1 11.2 µM [inhibitor, partial curve, poor fit], O=C1C(Cc2c[nH]c3ccccc23)NC(=S)N1C1CCCCC1 (configuration not stated) 10 µM [inhibitor, partial curve, poor fit]

Potency, inactive:
CCOC(=O)c1[nH]cnc1C(=O)Nc1ccc(F)cc1
